According to patent publication US20210206855A1 (ADAGENE, published 2021):

Tests used:
Experiment in all cases: flow cytometry on yeast displaying CTLA4; Normalized FACS Bound, human WT = 1
mouse CD86 = molecular target: T1, mouse CD86 (mouse, UniProt P42082 24-244, limits assumed)
T1 sequence (looked up): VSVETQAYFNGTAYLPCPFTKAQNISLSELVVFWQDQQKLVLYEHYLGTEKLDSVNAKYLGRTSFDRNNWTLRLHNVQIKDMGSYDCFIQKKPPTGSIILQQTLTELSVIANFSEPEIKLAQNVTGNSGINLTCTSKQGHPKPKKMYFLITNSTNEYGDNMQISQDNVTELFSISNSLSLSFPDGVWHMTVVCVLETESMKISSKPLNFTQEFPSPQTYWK

human CD80 (recombinant) = molecular target: T2, human CD80 (recombinant) (human, UniProt P33681 35-242, limits assumed, biotinylated where used in solution)
T2 construct: also called biotinylated CD80
T2 sequence (looked up): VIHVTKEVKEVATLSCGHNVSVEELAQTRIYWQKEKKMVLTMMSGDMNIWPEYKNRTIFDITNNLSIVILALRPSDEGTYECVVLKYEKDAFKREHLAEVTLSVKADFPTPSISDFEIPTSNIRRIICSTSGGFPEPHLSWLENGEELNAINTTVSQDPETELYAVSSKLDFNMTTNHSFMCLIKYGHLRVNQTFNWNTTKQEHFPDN

[1] = molecular target: T3, human CD86 (epitope mapping reagent) (human, UniProt P42081 24-247, limits assumed)
T3 sequence (looked up): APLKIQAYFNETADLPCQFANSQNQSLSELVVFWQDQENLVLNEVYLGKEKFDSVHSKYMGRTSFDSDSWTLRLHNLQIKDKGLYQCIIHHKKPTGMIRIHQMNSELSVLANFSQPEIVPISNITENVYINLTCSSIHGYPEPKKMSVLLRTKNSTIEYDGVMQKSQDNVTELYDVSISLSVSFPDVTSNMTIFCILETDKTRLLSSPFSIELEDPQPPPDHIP

Measured: binding result

B1: human CTLA4 mutant ADS42AAA displayed on yeast (receptor)
chain: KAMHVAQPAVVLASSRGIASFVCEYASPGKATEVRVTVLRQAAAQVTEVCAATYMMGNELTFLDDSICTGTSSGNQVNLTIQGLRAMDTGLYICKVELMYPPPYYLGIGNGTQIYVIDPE
notes: A42 stays A
binds: all assays above
